Source: PMC7819943, “Rice protein-binding microarrays: a tool to detect cis-acting elements near promoter regions in rice”
Some of the results follow.

These sequences were tested against T1, OsWOX13 (Oryza sativa, UniProt Q5QMM3 1-267) (assay: protein-binding microarray (RPBM); PBS, 2% BSA, 51.3 ng/ul salmon testes DNA, 50 uM zinc acetate, 200 nM TF, 25 C, 1 h; high values mean tight binding). Details: protein: recombinant; tags: N-terminal polyhistidine and DsRed monomer fusion (pET32a); label: CyDye5-dUTP incorporated in the synthesized complementary strand; 3' TTTTT single-stranded linker to array surface; dsDNA, one strand shown.
T1 sequence: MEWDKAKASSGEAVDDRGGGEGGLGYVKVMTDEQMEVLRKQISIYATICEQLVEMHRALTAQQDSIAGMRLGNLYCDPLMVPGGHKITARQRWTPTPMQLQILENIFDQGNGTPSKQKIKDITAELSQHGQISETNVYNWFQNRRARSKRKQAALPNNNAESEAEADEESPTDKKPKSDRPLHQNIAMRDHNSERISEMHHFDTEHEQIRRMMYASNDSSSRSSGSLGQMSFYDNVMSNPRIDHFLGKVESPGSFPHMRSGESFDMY
In short: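 Binding signal here means per-feature fluorescence intensity in arbitrary units. The values were read on an Axon 4000B scanner after a custom Agilent array, double-stranded by primer extension with Cy5-dUTP, was incubated with 200 nM protein at 25 °C for 1 h in PBS with 2% BSA, salmon testes DNA and 50 µM zinc acetate, then washed. The proteins were transcription factors with an N-terminal polyhistidine tag and DsRed, expressed in E. coli BL21-CodonPlus and purified on Ni–NTA.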

Sequence	binding signal
TTACAAAAGAATTAATTACCAGATCATTTTAAAATAAGCACGGAGTCACCTAGTGCAG	6220 fluorescence intensity (a.u.)
ACCAAGGATAATTAATTCTACTTATCACCCATTTAAACATCGGAGTCACCTAGTGCAG	14900 fluorescence intensity (a.u.)
TGATGATTTGATTTGATTTGATTCAATCTCCAAATCGATCCGGAGTCACCTAGTGCAG	65100 fluorescence intensity (a.u.)
TAGATTGATGGTTGCTGGCTTATAAATAACAGCTAGCCATCGGAGTCACCTAGTGCAG	27000 fluorescence intensity (a.u.)
AGTAATTTACATATATTATAGAAATATATTATAGAAGTAACGGAGTCACCTAGTGCAG	14500 fluorescence intensity (a.u.)
TTGCTGATAAAGGGATTGATGACCTTGTACATAAGGACTACGGAGTCACCTAGTGCAG	8190 fluorescence intensity (a.u.)
CGTCAAAATTAGAAGTTTGACTAAAATTGAAAGTTTGAAGCGGAGTCACCTAGTGCAG	6040 fluorescence intensity (a.u.)
AAAATATATTGACTGTTGGATTTAATGAAATTTGGTGTTACGGAGTCACCTAGTGCAG	25100 fluorescence intensity (a.u.)
AATGACTGACTCCATTAATTCATCCAAACTGTACAGCTAGCGGAGTCACCTAGTGCAG	33900 fluorescence intensity (a.u.)
CCACATAATTGTTAATTAATAATAAAGCCTCCAGATTATACGGAGTCACCTAGTGCAG	25500 fluorescence intensity (a.u.)
TGAATTTTGTTGATTGGTCGGAGCTTGGGGTTGTGTATGGCGGAGTCACCTAGTGCAG	32800 fluorescence intensity (a.u.)
GTTGCAAATTGTATGATTTGTATCATATACCTTTTGAACCCGGAGTCACCTAGTGCAG	15600 fluorescence intensity (a.u.)
TTTGGCTTCAATCTAAACGTAACTTTACCTTACCAAAATTCGGAGTCACCTAGTGCAG	3360 fluorescence intensity (a.u.)
TCCGTAAATTTGTCTTCTACTATTACAGGCTTCCTTTGAACGGAGTCACCTAGTGCAG	9240 fluorescence intensity (a.u.)
GTCTTAATTGAATGCATCAATTATACTTTTGCAGGAGTTTCGGAGTCACCTAGTGCAG	64900 fluorescence intensity (a.u.)
GCTTATATAATTGCATATAACATAGGTAGCTACAAGGATGCGGAGTCACCTAGTGCAG	16100 fluorescence intensity (a.u.)
TCTCAATCAAAATTATTTAGATTTGTCCAAATTTATAGAACGGAGTCACCTAGTGCAG	24600 fluorescence intensity (a.u.)
GTGTGATTGTGATGTTGCATGGTTAGTATTGTGTGTGCGTCGGAGTCACCTAGTGCAG	20800 fluorescence intensity (a.u.)
CCTAATTATCTTAGTAATCACCTTTCTTAGTCACCGGCAACGGAGTCACCTAGTGCAG	21000 fluorescence intensity (a.u.)
AAATGTGACCATAATTGGTTTTATGTATTTGGATGGTATGCGGAGTCACCTAGTGCAG	7960 fluorescence intensity (a.u.)
ACTAATTTAATCAGGCTTGCGCGAGCTTGGCGGCGCGTAGCGGAGTCACCTAGTGCAG	21700 fluorescence intensity (a.u.)

Sequence	binding signal
TAGAATTACTTACTAAATTGCTTGTTATATTGAAGATATTCGGAGTCACCTAGTGCAG	5790 fluorescence intensity (a.u.)
CTCTCAGTGTGTCAATCACCTTGTAACACACATCCACACACGGAGTCACCTAGTGCAG	4660 fluorescence intensity (a.u.)
CTTAATTAATAGGGTATTAATAACCTCCCTAAAGTCATTGCGGAGTCACCTAGTGCAG	60200 fluorescence intensity (a.u.)
TTCGCATCTCAACCAATCACAATCTTCTACCACTTAATTCCGGAGTCACCTAGTGCAG	3880 fluorescence intensity (a.u.)
ATTTAAGTTAATTACATAATGTAAATCCTTCTCAACTTCTCGGAGTCACCTAGTGCAG	8880 fluorescence intensity (a.u.)
ATCTTGTTACGAAGATTTAATTGTAACGAACACAATGGTGCGGAGTCACCTAGTGCAG	4020 fluorescence intensity (a.u.)
GATTTTGATTTGCAGATGAAGCTGATCCGTGGAGAATTCTCGGAGTCACCTAGTGCAG	12400 fluorescence intensity (a.u.)
GCACACAAATCAACAAAGTGACAGTACACAGATAACGAATCGGAGTCACCTAGTGCAG	8420 fluorescence intensity (a.u.)
CGTGTCAATCACCATGTTCTCCCTCCTTTCCCTTGCCCACCGGAGTCACCTAGTGCAG	27000 fluorescence intensity (a.u.)
TGTAAATTTTGCCACTAATTATTTCATTTTGTATTTGGGCCGGAGTCACCTAGTGCAG	37700 fluorescence intensity (a.u.)
AAATCATTGACCAGCATTTATTTGTGATGACAATGACAAGCGGAGTCACCTAGTGCAG	3990 fluorescence intensity (a.u.)
CATTAATTAAACTAACCCATCCATTGATTGATTATCAGTGCGGAGTCACCTAGTGCAG	63500 fluorescence intensity (a.u.)
CCACCAAGTATAAATTATGATTAGTAGTAACTAATCATAGCGGAGTCACCTAGTGCAG	10100 fluorescence intensity (a.u.)
TGCTAATGACGATTAATTAAGTTTAATAGATTCGTCTCGCCGGAGTCACCTAGTGCAG	43000 fluorescence intensity (a.u.)
CAAGGGAGGTCGGGGAGGATGATTGGGTTGGGTAGAGCGGCGGAGTCACCTAGTGCAG	4440 fluorescence intensity (a.u.)
AAATTAAATTGTTGAAGCCATTTTAATACTTATTGGTTGCCGGAGTCACCTAGTGCAG	17700 fluorescence intensity (a.u.)
GCACAGAATAAATTTGAAACCGATACAAAATTATTGCTGTCGGAGTCACCTAGTGCAG	5150 fluorescence intensity (a.u.)
GCGAAATTGTACAATCTAATATAGCTAACTAAATAGACAACGGAGTCACCTAGTGCAG	19700 fluorescence intensity (a.u.)
CTAAATGAACTGATATATCGCTGACTTGGTTTCCATGCAGCGGAGTCACCTAGTGCAG	9630 fluorescence intensity (a.u.)
GGAGATTGACGAAGTCACCACAGGCGCCTCGCTATCGACGCGGAGTCACCTAGTGCAG	38300 fluorescence intensity (a.u.)
TCCTTCGATCCGATCAATCAAACCTGCCATAGTCATAGTGCGGAGTCACCTAGTGCAG	6500 fluorescence intensity (a.u.)
